Laboratory results as given in the supplement of paper PMC12217912.
The other results are listed elsewhere or left out. The full chains were built here from the parent and the listed change. Values near 0.05 are background.

B1: TEV protease; numbered along this chain (parent)
chain: MGESLFKGPRDYNPISSSICHLTNESDGHTTSLYGIGFGPFIITNKHLFRRNNGTLVVQSLHGVFKVKDTTTLQQHLVDGRDMIIIRMPKDFPPFPQKLKFREPQREERICLVTTNFQTKSMSSMVSDTSCTFPSGDGIFWKHWIQTKDGQCGSPLVSTRDGFIVGIHSASNFTNTNNYFTSVPKNFMELLTNQEAQQWVSGWRLNADSVLWGGHKVFMVKPEEPFQPVKEATQL

Variants of: B1
Assay: raw area under fraction-flipped curve 0-4 h after induction (AUC4h, not background-subtracted), DNA-recorder readout of cleavage of the substrate (dimensionless); higher = more cleavage of the substrate by the protease variant
Conditions: temperature: 34 °C; time window: 0-4 h after rhamnose induction
Protocol: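 In vivo DNA recorder in E. coli TOP10(DE3) ΔrhaA at 34 °C. Each TEVp single-site mutant (parent TEVp 0) is paired with a single-site variant of the 7-mer TEVs (canonical ENLYFQ|S). The substrate sits between flexible linkers in a Bxb1-sfGFP-TEVs-SsrA fusion, so cleavage stabilises Bxb1 and speeds flipping of a recombination array, read by NGS. The value is the raw area under the fraction-flipped curve over 0-4 h after rhamnose induction (AUC4h), with ≥20 reads per time point. It is not background-subtracted; inactive controls average about 0.047.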
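Note: Bxb1 expression induced with 0.2% (w/v) L-rhamnose at OD600 near 0.5, cultures sampled hourly, flipped fraction per protease–substrate barcode pair counted by paired-end Illumina sequencing.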

Variant	area with substrate CNLYFQS	area with substrate FNLYFQS	area with substrate GNLYFQS	area with substrate HNLYFQS	area with substrate INLYFQS	area with substrate LNLYFQS	area with substrate NNLYFQS	area with substrate PNLYFQS	area with substrate SNLYFQS	area with substrate WNLYFQS	area with substrate YNLYFQS	area with substrate KNLYFQS	area with substrate MNLYFQS	area with substrate TNLYFQS	area with substrate RNLYFQS	area with substrate VNLYFQS	area with substrate QNLYFQS
T71Q	0.0783	0.0608	0.0492	0.0544	0.0599	0.0639	0.0633	0.0622	0.0773	0.052	0.085						
K68W	0.0573	0.0539		0.0627	0.0582			0.059	0.0912	0.0761	0.0618	0.0788	0.0657	0.0625			
T30E	0.078		0.0521		0.0744	0.0837	0.0505	0.0553	0.0607	0.0613				0.0691	0.06	0.0678	
T30P	0.057	0.0616	0.0529	0.0695	0.0455				0.0747	0.0524	0.0586	0.056	0.0628	0.0512			0.063
F95K	0.0384						0.0548			0.0319					0.048		
Q234Y	0.0609	0.0561	0.0651	0.0658	0.0617	0.0592	0.0641	0.068		0.0529	0.0641	0.083	0.0649	0.0209		0.0598	0.0594
Y34S	0.0576	0.0561		0.0574		0.0565	0.0485	0.0621	0.0595	0.054	0.0507			0.0579		0.0703	
Y34R	0.0592			0.0613		0.0564		0.0669	0.0664	0.0678			0.0619				0.0557
Y34A	0.0558					0.0611			0.05	0.0506	0.0571	0.0652					
F6G	0.0709	0.0622		0.0674	0.0668	0.0637	0.0693			0.0491		0.0604					
F101C	0.0612	0.0481	0.0649	0.0609	0.0332	0.049	0.0552	0.0516	0.0674	0.0561	0.0776	0.0758	0.0509			0.0607	0.057
Q227C	0.103	0.0551		0.0541		0.0621	0.0603			0.0661		0.0797	0.0697	0.0559		0.064	
F180K	0.0592	0.0871	0.057	0.0471	0.0669		0.0545	0.043	0.0575	0.0544	0.0546		0.0322	0.0446		0.0478	
T55N	0.0721	0.0548	0.0715	0.0521	0.044	0.0496			0.0615	0.0542	0.0588	0.0679	0.083	0.0919		0.0713	
F133I	0.0774		0.0766	0.0663	0.0662						0.0589	0.0689		0.0539	0.0508		
F133A	0.0664	0.0618				0.0662	0.0673	0.0699		0.0601			0.062	0.0606		0.0701	
F140T	0.0735			0.0605				0.0245	0.0391	0.0518		0.0548	0.0634	0.0513			

Variant	area with substrate CNLYFQS	area with substrate FNLYFQS	area with substrate GNLYFQS	area with substrate HNLYFQS	area with substrate INLYFQS	area with substrate LNLYFQS	area with substrate NNLYFQS	area with substrate PNLYFQS	area with substrate SNLYFQS	area with substrate WNLYFQS	area with substrate YNLYFQS	area with substrate KNLYFQS	area with substrate MNLYFQS	area with substrate TNLYFQS	area with substrate RNLYFQS	area with substrate VNLYFQS	area with substrate QNLYFQS
A207G	0.102		0.0823	0.0617		0.0649	0.0665	0.0493		0.0679	0.0643	0.0595		0.0607			0.0755
S154Y	0.0552	0.0625	0.055				0.0633			0.0646			0.0587	0.0537		0.0612	
V229T	0.0841		0.0546			0.0592	0.0801				0.0679						
M122R	0.0685			0.0683	0.0369	0.0616			0.0663	0.0603	0.0622	0.0702	0.0686	0.0728		0.0733	
P134V	0.0469	0.0682	0.0592	0.0613	0.0383		0.0586	0.0655	0.0644	0.0571	0.0693	0.0649	0.061	0.0724	0.0574	0.0503	
P94F	0.0553	0.0823						0.0662				0.087		0.0707	0.0678		
R87S	0.0509	0.0539	0.0705	0.0563	0.0705	0.0563	0.0527			0.0585			0.0638	0.0752		0.07	0.0873
R87Y	0.0864	0.0661		0.0611					0.0997	0.0736				0.0786			
K230Q	0.0595			0.0571	0.0619	0.0636	0.0388	0.0713	0.0662	0.0537			0.0593	0.0865			
E3L	0.0315			0.0622	0.0612	0.0426	0.0572	0.0714	0.0548		0.0642		0.0632	0.0686			
P89Q	0.0089		0.0778	0.063		0.0513	0.0692	0.0661		0.0531	0.0547	0.0715		0.0567			
M125Q	0.0655	0.0711	0.0739	0.0716	0.0611	0.0588	0.07	0.062	0.0634	0.0668		0.0723		0.0624	0.0674	0.066	0.0823
M125P	0.0817				0.0685				0.0568	0.0506	0.0635			0.0644		0.063	
L99G	0.0642		0.0637	0.0627		0.05	0.0406	0.0729	0.0605	0.0521				0.0584			
Q197T	0.0671			0.0532	0.0584					0.0654							0.0831
T119Y	0.0603			0.051	0.0616		0.0654				0.0616	0.0791	0.074	0.0594			
K148H	0.0631	0.069	0.0598	0.0671	0.0585	0.0647		0.0375	0.0761	0.0596	0.0709	0.0763	0.0586	0.0585	0.0549	0.0609	0.0592
